Measurements published in PubChem BioAssay AID463173 (ICCB-Longwood Screening Facility, Harvard Medical School, 2010).
Among all 52,000 compounds or so, about 4,300 (8.3%) were called active. Cut-off read from the data, not from the text of the source: active = survival mostly below about 52% (no sharp cut-off); inactive = mostly above about 56%. Some of the results follow.

test system: DeltatarO mutant; experiment: S. aureus survival, RN4220 and DeltatarO strains – OD600, teichoic acid synthesis inhibitors, primary screen (AID 463173); conditions: S. aureus RN4220 wild type/DeltatarO growth, OD600, 18 h, active compounds read low, screened at 18.75 µg/mL (by protocol)

Q: Which survival does the source give for `Cc1cccc(NC(=O)c2ccc(-n3c(C)nnc3C)cc2)c1` here?
A: The survival was inactive: 88%.

Q: `Cc1ccc(-n2ncc3c(N4CCCCCC4)ncnc32)cc1Cl` was tested. Which survival did it give?
A: Its survival is inactive: 102%.

Q: With `O=S1(=O)c2ccccc2N(Cc2cccc(F)c2)c2ccccc21` as the compound, how does the survival read?
A: The survival was inactive: 55%.

Q: How did the survival turn out when `COc1ccc(NC(=O)c2ccco2)cc1NC(=O)c1cc(Cl)ccc1OC` was run?
A: Its survival is inactive: 49%.

Q: `CSc1ccc(-c2nnn(CC(=O)Nc3sc4c(c3C#N)CCC(C(C)(C)C)C4)n2)cc1` (stereo not given) was tested. Which survival did it give?
A: Its survival is inactive: 82%.

Q: Which survival does the source give for `CCCCOc1ccc(C(C)NC(=O)CN2C(=O)CSc3ccc(S(=O)(=O)N4CCOCC4)cc32)cc1` (stereo not given) here?
A: The survival was inactive: 65%.

Q: With `CCCN(CCC)C(=O)Cn1c(=O)n(-c2cccc(C)c2)c(=O)c2c1c1cc(OC)ccc1n2C` as the compound, how does the survival read?
A: Its survival is inactive: 64%.

Q: Which survival does the source give for `COc1cccc(-c2cc(C(F)(F)F)nc(NCCc3ccc(OC)c(OC)c3)n2)c1` here?
A: The survival was active: 4%.

Q: `Cc1cccc(CCNC(=O)c2cc(S(=O)(=O)N3CCCCC3)c[nH]2)c1` was tested. Which survival did it give?
A: The survival was inactive: 74%.

Q: For `Cc1c2cnn(-c3ccccc3)c(=O)c2c(C)n1C(C)C(=O)Nc1ccccc1C(F)(F)F` (stereo not given), which survival is on record?
A: Its survival is inactive: 75%.

Q: How did the survival turn out when `Cc1cccc(N2CCN(C(=O)c3ccc4c(c3)N(Cc3ccccc3)C(=O)c3ccccc3S4(=O)=O)CC2C)c1` (stereo not given) was run?
A: Its survival is inactive: 63%.

Q: `CCn1c(=O)ccc2cc(OC)ccc21` was tested. Which survival did it give?
A: The survival was inactive: 73%.

Q: Which survival does the source give for `Cc1ccc(C)c(NC(c2ccccc2)c2nnc(-c3ccccc3F)o2)c1` (stereo not given) here?
A: Its survival is active: 4%.

Q: With `Clc1ccc(CCNc2nc3cc(Cl)c(Cl)cc3n3cnnc23)cc1` as the compound, how does the survival read?
A: The survival was inactive: 91%.

Q: How did the survival turn out when `COc1ccc(CCN2C(=O)N(c3cccc(C)c3)C(=O)C2CC(=O)Nc2ccccc2)cc1OC` (stereo not given) was run?
A: Its survival is inactive: 64%.

Q: With `COc1c(Cl)cc(Cl)cc1C(=O)Nc1cccc(-c2nc3ccccc3o2)c1C` as the compound, how does the survival read?
A: Its survival is inactive: 109%.

Q: How did the survival turn out when `O=S(=O)(c1ccc(F)cc1)N1CCC(Oc2cccc(C(F)(F)F)c2)CC1` was run?
A: Its survival is inactive: 71%.

Q: Which survival does the source give for `CCc1ccccc1NC(=O)c1cn(C)c(=O)c2ccccc12` here?
A: The survival was inactive: 68%.

Q: `COc1cccc(CNC(=O)C(=O)NCC(c2cccs2)S(=O)(=O)c2ccccc2)c1` (stereo not given) was tested. Which survival did it give?
A: Its survival is inactive: 116%.

Q: `COc1ccc(CCNC(=O)CCCn2c(=O)c3ccccc3n(Cc3ccccc3)c2=O)cc1OC` was tested. Which survival did it give?
A: Its survival is inactive: 94%.

Q: How did the survival turn out when `CCC1(CC)Cc2ccccc2-c2nc(NN)n(Cc3ccccc3)c(=O)c21` was run?
A: The survival was active: 48%.

Q: `COc1ccc(OCCn2c(NC(=O)c3ccc(OC)cc3)nc3ccccc32)cc1` was tested. Which survival did it give?
A: The survival was active: -2%.

Q: With `CNC(=O)C1CCC(Cn2c(=O)c3sccc3n(CC(=O)N3CCCC(C)C3)c2=O)CC1` (stereo not given) as the compound, how does the survival read?
A: The survival was inactive: 93%.

Q: For `COCCCNC(=O)C1CCN(Cc2cc3ccccc3n2Cc2cccc(C)c2)CC1`, which survival is on record?
A: The survival was inactive: 91%.

Q: With `COc1cc(-c2nc(SCC(=O)Nc3ccc4c(c3)OCO4)c(-c3ccccc3)[nH]2)cc(OC)c1OC` as the compound, how does the survival read?
A: Its survival is inactive: 57%.

Q: How did the survival turn out when `COc1ccc(-c2nnc(SCC(=O)N3CCC(C)CC3)o2)cc1` was run?
A: The survival was inactive: 82%.

Q: With `COc1ccc(-c2nnc(C3CCN(S(=O)(=O)c4cccc(Cl)c4)CC3)o2)cc1` as the compound, how does the survival read?
A: The survival was inactive: 79%.

Q: How did the survival turn out when `COc1ccccc1CNC(=O)CSc1ncc(S(=O)(=O)c2ccc(C)c(Cl)c2)c(=O)[nH]1` was run?
A: The survival was inactive: 124%.

Q: `CCCOc1ccc(CNC(=O)C(NS(=O)(=O)c2cccs2)C(C)C)cc1` (stereo not given) was tested. Which survival did it give?
A: The survival was inactive: 77%.

Q: How did the survival turn out when `COc1cc(Cl)c(C)cc1NC(=O)c1cnc(N2CCCCC2)c2ccccc12` was run?
A: Its survival is inactive: 115%.

Q: Which survival does the source give for `Cn1nc(CC(=O)Nc2ccc(N3CCN(C(=O)OC(C)(C)C)CC3)cc2)c2ccccc2c1=O` here?
A: Its survival is inactive: 84%.

Q: `COC(=O)C(CCSC)Nc1ncnc2onc(-c3ccc(F)cc3)c12` (stereo not given) was tested. Which survival did it give?
A: The survival was inactive: 52%.

Q: How did the survival turn out when `CC(C)Cn1c(-c2cccc(Br)c2)nc2ccccc21` was run?
A: Its survival is active: 21%.

Q: How did the survival turn out when `CCOC(=O)C1(C)C=C(Nc2cccc(C(=O)O)c2)C(=O)N1c1ccccc1` (stereo not given) was run?
A: The survival was inactive: 73%.

Q: `Cc1ccc2c(=O)cc(C(=O)Nc3c(C)n(C)n(-c4ccccc4)c3=O)oc2c1` was tested. Which survival did it give?
A: The survival was active: 39%.

Q: How did the survival turn out when `COc1cc(NC(=O)CSc2nc3nc(C)c(Cc4ccccc4Cl)c(C)n3n2)cc(OC)c1` was run?
A: Its survival is inactive: 73%.

Q: `COc1ccccc1N1CCN(C(=O)C2CCCN(S(=O)(=O)c3ccc4c(c3)CCCN4C(C)=O)C2)CC1` (stereo not given) was tested. Which survival did it give?
A: The survival was inactive: 88%.

Q: With `Cc1ccc(Nc2ncnc3sc4c(c23)CCC(C)C4)cc1C` (stereo not given) as the compound, how does the survival read?
A: Its survival is inactive: 58%.

Q: For `O=C(c1ccccc1)N1c2nc(-c3ccco3)nn2C2(CCCCC2)[C@@H]2CCCC[C@@H]21`, which survival is on record?
A: The survival was inactive: 62%.

Q: Which survival does the source give for `Cc1cc(C)cc(NC(=O)Cc2noc3ccccc23)c1` here?
A: The survival was active: 54%.

Q: Which survival does the source give for `Cc1cc(C)c(S(=O)(=O)Nc2nnc(C(F)(F)F)s2)c(C)c1` here?
A: Its survival is active: 36%.

Q: For `Cc1cc(C)c(NC(=O)C2CCCN(S(=O)(=O)c3c(C)noc3C)C2)c(C)c1` (stereo not given), which survival is on record?
A: Its survival is inactive: 84%.

Q: How did the survival turn out when `Cc1ccccc1OCc1ccc(-c2nc(C#N)c(N3CCN(c4cccc(Cl)c4)CC3)o2)o1` was run?
A: The survival was inactive: 53%.

Q: With `Cc1cc(C)cc(NC(=O)C(Cc2ccccc2)NS(=O)(=O)c2ccc3c(c2)CCC(=O)N3)c1` (stereo not given) as the compound, how does the survival read?
A: The survival was inactive: 77%.

Q: For `CC(C)NS(=O)(=O)c1ccc(CCC(=O)Nc2ccc3c(c2)OCCO3)cc1`, which survival is on record?
A: The survival was inactive: 83%.

Q: `CCOc1ccccc1NC(=O)C(=O)Nc1ccc2nc3n(c(=O)c2c1)CCCCC3` was tested. Which survival did it give?
A: Its survival is inactive: 64%.

Q: Which survival does the source give for `OCc1cnc(SCc2ccccc2F)n1Cc1ccc(F)cc1` here?
A: Its survival is inactive: 87%.

Q: Which survival does the source give for `Nc1n[nH]c2c1C1(CCCC1)Cc1ccccc1-2` here?
A: The survival was inactive: 100%.

Q: How did the survival turn out when `Cc1ccc2cccc(NC(=S)NC(=O)c3ccn(C)n3)c2n1` was run?
A: The survival was inactive: 78%.

Q: How did the survival turn out when `O=C(c1ccc2c(c1)N(Cc1ccc(F)cc1)C(=O)c1ccccc1S2(=O)=O)N1CCCCC1` was run?
A: The survival was inactive: 131%.

Q: With `NC(=O)c1cc(S(=O)(=O)N2CCN(c3cccc(C(F)(F)F)c3)CC2)cs1` as the compound, how does the survival read?
A: The survival was inactive: 87%.

Q: With `COc1cc(NC(=O)CSc2c3c(nc4ccccc24)CCC3)cc(OC)c1OC` as the compound, how does the survival read?
A: The survival was inactive: 82%.

Q: `O=c1[nH]c2cc3c(cc2cc1CN(Cc1ccc2c(c1)OCO2)S(=O)(=O)c1ccc(F)cc1)OCO3` was tested. Which survival did it give?
A: Its survival is inactive: 61%.

Q: For `CCCCCCOc1ccc(C2C(=O)N(C3CCCCC3)CC(=O)N2C2CCCCC2)cc1` (stereo not given), which survival is on record?
A: The survival was inactive: 95%.

Q: How did the survival turn out when `CCN(CC)S(=O)(=O)c1ccc(C(=O)NCCSc2c(-c3ccccc3)[nH]c3ccccc23)cc1` was run?
A: The survival was inactive: 82%.
